# This is one part of the list.
# B1: PV12658A-bvu-496-32-496 (Bacteroides vulgatus) (protein)
# chain: DLDGAITTPAAVELALNGIYYSLPGNGFNVIFPTVSGSFKAGTMWRQEIVSAGNAVYYSERMLPTLSFSDATEWDADYAVIKNANFLETACNRMSDGEFSGNRRAEVLGEIAYLRALAYFNILVRYCEFWDMNSEYGVVMRNEAPSVSNALKARSSVADSYQYILDQLEIAIEKAPDWKKLSQASKEAAKALKARVLLYAGKYTEAVAAVNDAIDTNSPLPEANYGDVFDKFSTTKEILFARVFDQKDATNTSTRQQCYGNSPTKKQGYWGPTNEYVELVGDDPRADAIFSKVDSLMDSRSSAVAYNLKSVKKLLNDANDMPVIFSRVSELYLIKAEALYRSGASISEAYAPIRKLRERAGAEIILPANNEELETAIFNEWMLELSFENWHEWFAMIRFAGYTEKPDFTRLLALNKTLREALEKEYEKSEAQGDNYYQRIIDRRIDAIPSSEISSNLECKQNPGY
# How the values were obtained:
# Assay in all cases: glycan array binding signal (z-score within array); higher = stronger binding
# Details in all cases: glycan notation: IUPAC condensed, linker removed
# [1] = molecular target: Gal(b1-3)GlcNAc(b1-3)Gal(b1-4)GlcNAc(b1-2)[Gal(b1-3)GlcNAc(b1-3)Gal(b1-4)GlcNAc(b1-6)]Man(a1-6)[Gal(b1-3)GlcNAc(b1-3)Gal(b1-4)GlcNAc(b1-2)Man(a1-3)]Man(b1-4)GlcNAc(b1-4)[Fuc(a1-6)]GlcNAc
# How it was run: (§1)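 The binding signal is a Z-score computed within each array and averaged over linkers. Arrays of the same protein sequence at different concentrations or buffers were also averaged together. Data originate from 3228 arrays in the Consortium for Functional Glycomics database, kept only where the protein sequence was available.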
# [2] = molecular target: Gal(b1-3)GlcNAc(b1-3)Gal(b1-4)GlcNAc(b1-3)Gal(b1-4)GlcNAc(b1-2)[Gal(b1-3)GlcNAc(b1-3)Gal(b1-4)GlcNAc(b1-3)Gal(b1-4)GlcNAc(b1-6)]Man(a1-6)[Gal(b1-3)GlcNAc(b1-3)Gal(b1-4)GlcNAc(b1-3)Gal(b1-4)GlcNAc(b1-2)Man(a1-3)]Man(b1-4)GlcNAc(b1-4)[Fuc(a1-6)]GlcNAc
# How it was run: as §1
# [3] = molecular target: Gal(b1-3)GlcNAc(b1-3)Gal(b1-4)GlcNAc(b1-6)[Gal(b1-3)GlcNAc(b1-3)]Gal(b1-4)Glc
# How it was run: as §1
# [4] = molecular target: Gal(b1-3)GlcNAc(b1-3)Gal(b1-4)[Fuc(a1-3)]GlcNAc
# How it was run: as §1
# [5] = molecular target: Gal(b1-3)GlcNAc(b1-3)Gal(b1-4)[Fuc(a1-3)]GlcNAc(b1-6)[Gal(b1-3)GlcNAc(b1-3)]Gal(b1-4)Glc
# How it was run: as §1
# [6] = molecular target: Gal(b1-3)GlcNAc(b1-3)GalNAc
# How it was run: as §1
# [7] = molecular target: Gal(b1-3)GlcNAc(b1-6)Gal(b1-4)GlcNAc
# How it was run: as §1
# [8] = molecular target: Gal(b1-3)GlcNAc(b1-6)GalNAc
# How it was run: as §1
# [9] = molecular target: Gal(b1-3)GlcNAc(b1-6)[Gal(b1-3)]GalNAc
# How it was run: as §1
# [10] = molecular target: Gal(b1-3)GlcNAc6S
# How it was run: as §1
# [11] = molecular target: Gal(b1-3)[Fuc(a1-4)]GlcNAc
# How it was run: as §1
# [12] = molecular target: Gal(b1-3)[Fuc(a1-4)]GlcNAc(b1-2)Man
# How it was run: as §1
# [13] = molecular target: Gal(b1-3)[Fuc(a1-4)]GlcNAc(b1-2)Man(a1-3)[Gal(b1-3)[Fuc(a1-4)]GlcNAc(b1-2)Man(a1-6)]Man(b1-4)GlcNAc(b1-4)[Fuc(a1-6)]GlcNAc
# How it was run: as §1
# [14] = molecular target: Gal(b1-3)[Fuc(a1-4)]GlcNAc(b1-3)Gal(b1-3)[Fuc(a1-4)]GlcNAc
# How it was run: as §1
# [15] = molecular target: Gal(b1-3)[Fuc(a1-4)]GlcNAc(b1-3)Gal(b1-4)[Fuc(a1-3)]GlcNAc
# How it was run: as §1
# [16] = molecular target: Gal(b1-3)[Fuc(a1-4)]GlcNAc(b1-6)GalNAc
# How it was run: as §1
# [17] = molecular target: Gal(b1-3)[GlcNAc(b1-6)]GalNAc
# How it was run: as §1
# [18] = molecular target: Gal(b1-3)[Neu5Ac(a2-6)]GalNAc
# How it was run: as §1
# [19] = molecular target: Gal(b1-3)[Neu5Ac(a2-6)]GlcNAc(b1-4)Gal(b1-4)Glc
# How it was run: as §1
# [20] = molecular target: Gal(b1-3)[Neu5Ac(b2-6)]GalNAc
# How it was run: as §1
# [21] = molecular target: Gal(b1-4)Gal
# How it was run: as §1
# [22] = molecular target: Gal(b1-4)GalNAc(a1-3)[Fuc(a1-2)]Gal(b1-4)GlcNAc
# How it was run: as §1
# [23] = molecular target: Gal(b1-4)GalNAc(b1-3)[Fuc(a1-2)]Gal(b1-4)GlcNAc
# How it was run: as §1
# [24] = molecular target: Gal(b1-4)Glc
# How it was run: as §1
# [25] = molecular target: Gal(b1-4)Glc6S
# How it was run: as §1
# [26] = molecular target: Gal(b1-4)GlcNAc
# How it was run: as §1
# [27] = molecular target: Gal(b1-4)GlcNAc(a1-6)Gal(b1-4)GlcNAc
# How it was run: as §1
# [28] = molecular target: Gal(b1-4)GlcNAc(b1-2)Man
# How it was run: as §1
# [29] = molecular target: Gal(b1-4)GlcNAc(b1-2)Man(a1-3)Man(b1-4)GlcNAc(b1-4)GlcNAc
# How it was run: as §1
# [30] = molecular target: Gal(b1-4)GlcNAc(b1-2)Man(a1-3)[Gal(b1-4)GlcNAc(b1-2)Man(a1-6)]Man(b1-4)GlcNAc(b1-4)GlcNAc
# How it was run: as §1
# [31] = molecular target: Gal(b1-4)GlcNAc(b1-2)Man(a1-3)[Gal(b1-4)GlcNAc(b1-2)Man(a1-6)]Man(b1-4)GlcNAc(b1-4)[Fuc(a1-6)]GlcNAc
# How it was run: as §1
# [32] = molecular target: Gal(b1-4)GlcNAc(b1-2)Man(a1-3)[Gal(b1-4)GlcNAc(b1-2)Man(a1-6)][Gal(b1-4)GlcNAc(b1-4)]Man(b1-4)GlcNAc(b1-4)[Fuc(a1-6)]GlcNAc
# How it was run: as §1
# [33] = molecular target: Gal(b1-4)GlcNAc(b1-2)Man(a1-3)[Gal(b1-4)GlcNAc(b1-2)Man(a1-6)][GlcNAc(b1-4)]Man(b1-4)GlcNAc(b1-4)[Fuc(a1-6)]GlcNAc
# How it was run: as §1
# [34] = molecular target: Gal(b1-4)GlcNAc(b1-2)Man(a1-3)[GlcNAc(b1-2)Man(a1-6)]Man(b1-4)GlcNAc(b1-4)GlcNAc
# How it was run: as §1
# [35] = molecular target: Gal(b1-4)GlcNAc(b1-2)Man(a1-3)[GlcNAc(b1-4)][Gal(b1-4)GlcNAc(b1-2)Man(a1-6)]Man(b1-4)GlcNAc(b1-4)GlcNAc
# How it was run: as §1
# [36] = molecular target: Gal(b1-4)GlcNAc(b1-2)Man(a1-3)[Man(a1-6)]Man(b1-4)GlcNAc(b1-4)GlcNAc
# How it was run: as §1
# [37] = molecular target: Gal(b1-4)GlcNAc(b1-2)Man(a1-6)Man(b1-4)GlcNAc(b1-4)GlcNAc
# How it was run: as §1
# [38] = molecular target: Gal(b1-4)GlcNAc(b1-2)Man(a1-6)[GlcNAc(b1-2)Man(a1-3)]Man(b1-4)GlcNAc(b1-4)GlcNAc
# How it was run: as §1
binder,measurement,setting,value
B1,glycan array binding signal (z-score),[1],6.34
same,glycan array binding signal (z-score),[2],1.57
same,glycan array binding signal (z-score),[3],1.05
same,glycan array binding signal (z-score),[4],-0.533
same,glycan array binding signal (z-score),[5],-0.307
same,glycan array binding signal (z-score),[6],-0.358
same,glycan array binding signal (z-score),[7],-0.021
same,glycan array binding signal (z-score),[8],-0.133
same,glycan array binding signal (z-score),[9],0.719
same,glycan array binding signal (z-score),[10],-0.203
same,glycan array binding signal (z-score),[11],-0.39
same,glycan array binding signal (z-score),[12],-0.193
same,glycan array binding signal (z-score),[13],0.012
same,glycan array binding signal (z-score),[14],-0.354
same,glycan array binding signal (z-score),[15],-0.493
same,glycan array binding signal (z-score),[16],1.6
same,glycan array binding signal (z-score),[17],-0.214
same,glycan array binding signal (z-score),[18],-0.254
same,glycan array binding signal (z-score),[19],0.29
same,glycan array binding signal (z-score),[20],-0.451
same,glycan array binding signal (z-score),[21],-0.244
same,glycan array binding signal (z-score),[22],-0.089
same,glycan array binding signal (z-score),[23],-0.423
same,glycan array binding signal (z-score),[24],-0.053
same,glycan array binding signal (z-score),[25],-0.062
same,glycan array binding signal (z-score),[26],-0.258
same,glycan array binding signal (z-score),[27],-0.029
same,glycan array binding signal (z-score),[28],-0.103
same,glycan array binding signal (z-score),[29],0.05
same,glycan array binding signal (z-score),[30],-0.209
same,glycan array binding signal (z-score),[31],-0.276
same,glycan array binding signal (z-score),[32],-0.152
same,glycan array binding signal (z-score),[33],-0.365
same,glycan array binding signal (z-score),[34],0.012
same,glycan array binding signal (z-score),[35],-0.478
same,glycan array binding signal (z-score),[36],0.006
same,glycan array binding signal (z-score),[37],-0.401
same,glycan array binding signal (z-score),[38],0.211

# From the supplement of paper PMC8728848
